# “And” between values parts separate entries of the source, which are not always exact repeats. Identical values can stand only once. Inconclusive results, whose numbers are uncertain, are shown with a selection of clear calls. For some assays here: Potencies of inconclusive entries are doubtful fits and often do not repeat. The source made the active and inactive calls. Unless noted, the call rests on the fitted dose curve; in most records, active means well fitted curve in the direction sought with a large enough effect; inconclusive means small, poorly fitted or top-dose-only effect, or another doubt; inactive means no such curve, though single readings can be large; an effect the other way counts as inactive or inconclusive.
# Legend:
# [1] = NFAT Signaling Pathway (AID 444; active means well fitted curve in either direction with a large enough effect, not every such curve was filed as active; inconclusive means small, poorly fitted or top-dose-only effect, or another doubt;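 further: carbachol stimulus at about its EC50 of 1 µM final; on the % scale 0 is the no-effect control and ±100 the full control effect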); conditions: Jurkat NFAT-bla M1, carbachol, beta-lactamase ratio, 5 h; at 7.69 µM (top of the series) unless noted
# Procedure, shortened: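 Jurkat cells carrying an NFAT-driven β-lactamase reporter and co-transfected muscarinic M1 receptor were treated with compound plus carbachol (1 uM final, an EC50 level) for 5 h at 37 °C. CCF4 loading followed for 1 h at RT; 460/530 nm ratio gave %activity.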
# [2] = Primary qHTS for small molecule stabilizers of the endoplasmic reticulum resident proteome: Secreted ER Calcium Modulated Protein (SERCaMP) assay (AID 1508630); conditions: SH-SY5Y GLuc-SERCaMP (Gaussia luciferase released on ER calcium loss) secretion, thapsigargin, luminescence; activity change, negative = inhibition: at 38.4 µM (top of the series) unless noted; further: potency means the concentration at half of the fitted maximal effect; on activity change, negative = inhibition: on the % scale 0 is the no-effect control and ±100 the full control effect
# Procedure, shortened: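 The SH-SY5Y reporter protocol was run at 3 concentrations up to 38.3 uM (primary) or 11 concentrations (follow-up): 16 h compound, 100 nM thapsigargin for 4 h, then extracellular luciferase luminescence.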
# [3] = molecular target: Cytochrome P450 1A2 (Homo sapiens) (UniProt P05177); test: p450-cyp1a2 (AID 410; calls by dose curve; further: potency means the concentration at half of the fitted maximal effect;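 on activity change, negative = inhibition: top concentration of the series differs between compounds; -100% = full effect of reference inhibitor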)
# UniProt P05177, sequence (P05177 whole entry, looked up): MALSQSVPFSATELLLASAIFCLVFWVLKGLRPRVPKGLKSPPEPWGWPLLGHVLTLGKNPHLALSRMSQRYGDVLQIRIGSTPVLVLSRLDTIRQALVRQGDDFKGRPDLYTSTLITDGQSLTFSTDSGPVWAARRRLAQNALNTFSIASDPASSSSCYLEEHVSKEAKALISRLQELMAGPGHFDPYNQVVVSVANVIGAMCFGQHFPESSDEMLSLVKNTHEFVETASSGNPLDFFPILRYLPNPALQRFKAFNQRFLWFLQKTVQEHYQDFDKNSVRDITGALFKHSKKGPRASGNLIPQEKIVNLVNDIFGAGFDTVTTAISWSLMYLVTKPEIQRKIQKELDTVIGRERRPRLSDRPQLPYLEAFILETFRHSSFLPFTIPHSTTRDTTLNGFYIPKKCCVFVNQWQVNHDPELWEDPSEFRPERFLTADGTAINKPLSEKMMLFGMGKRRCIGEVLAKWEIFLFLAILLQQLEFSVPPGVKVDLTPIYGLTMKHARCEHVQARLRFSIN
# Procedure, shortened: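 20nM CYP1A2, 100uM Luciferin-ME (=Km), 100mM KPO4; cpd 10 min RT; +NADPH regen, 60 min RT; stop/detect 20 min; luminescence. Normalized to furafylline 57 uM = full inhibition.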
# [4] = molecular target: 3',5'-cyclic-AMP phosphodiesterase 4B (Homo sapiens) (UniProt Q07343); test: qHTS Assay for Inhibitors of PDE-IV (AID 607; active means well fitted activation curve with a large enough effect in the main read-out, with a control signal flat, not every such curve was filed as active; inconclusive means small, poorly fitted or top-dose-only effect, or effect the other way, or a change in a side signal; further: potency means the concentration at half of the fitted maximal effect); conditions: HEK293 ACTOne CNG channel cells, membrane potential fluorescence; activation (PDE inhibition): at 22.9 µM (top of the series)
# UniProt Q07343, sequence (Q07343 whole entry, looked up): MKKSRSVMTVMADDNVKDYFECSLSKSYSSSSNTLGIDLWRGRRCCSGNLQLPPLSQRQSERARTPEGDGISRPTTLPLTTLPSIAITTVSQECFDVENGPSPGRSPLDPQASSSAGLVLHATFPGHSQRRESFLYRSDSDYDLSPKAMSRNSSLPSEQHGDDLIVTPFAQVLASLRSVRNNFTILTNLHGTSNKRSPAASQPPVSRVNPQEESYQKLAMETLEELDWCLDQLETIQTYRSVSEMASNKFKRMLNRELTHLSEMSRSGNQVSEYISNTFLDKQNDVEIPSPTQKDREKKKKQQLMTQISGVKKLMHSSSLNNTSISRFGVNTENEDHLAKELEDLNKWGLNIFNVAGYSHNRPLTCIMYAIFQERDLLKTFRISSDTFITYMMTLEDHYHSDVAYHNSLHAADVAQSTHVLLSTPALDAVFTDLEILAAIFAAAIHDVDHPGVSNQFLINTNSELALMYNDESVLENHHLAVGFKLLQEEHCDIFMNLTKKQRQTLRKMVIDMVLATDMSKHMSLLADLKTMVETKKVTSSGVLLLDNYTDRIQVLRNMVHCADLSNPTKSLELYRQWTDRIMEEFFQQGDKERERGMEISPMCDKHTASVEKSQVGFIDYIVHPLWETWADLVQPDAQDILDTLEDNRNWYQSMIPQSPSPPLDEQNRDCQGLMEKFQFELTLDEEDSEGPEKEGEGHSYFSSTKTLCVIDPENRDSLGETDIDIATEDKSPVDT
# Procedure, shortened: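 ACTOne HEK293 cells carry a modified cAMP-gated CNG channel and express endogenous PDE4; plated 1000 cells/well, compounds up to 22.9 uM final. Membrane-potential dye fluorescence (ex 535/em 590) was read; parental cells received 10 uM forskolin + 100 uM RO 20-1724.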
# [5] = molecular target: Cytochrome P450 2C19 (Homo sapiens) (UniProt P33261); test: qHTS Assay for Inhibitors and Substrates of Cytochrome P450 2C19 (AID 899); further: top concentration of the series differs between compounds; on the % scale 0 is the no-effect control and ±100 the full control effect; nearly all actives have a fitted effect of over 60% in size
# UniProt P33261, sequence (P33261 whole entry, looked up): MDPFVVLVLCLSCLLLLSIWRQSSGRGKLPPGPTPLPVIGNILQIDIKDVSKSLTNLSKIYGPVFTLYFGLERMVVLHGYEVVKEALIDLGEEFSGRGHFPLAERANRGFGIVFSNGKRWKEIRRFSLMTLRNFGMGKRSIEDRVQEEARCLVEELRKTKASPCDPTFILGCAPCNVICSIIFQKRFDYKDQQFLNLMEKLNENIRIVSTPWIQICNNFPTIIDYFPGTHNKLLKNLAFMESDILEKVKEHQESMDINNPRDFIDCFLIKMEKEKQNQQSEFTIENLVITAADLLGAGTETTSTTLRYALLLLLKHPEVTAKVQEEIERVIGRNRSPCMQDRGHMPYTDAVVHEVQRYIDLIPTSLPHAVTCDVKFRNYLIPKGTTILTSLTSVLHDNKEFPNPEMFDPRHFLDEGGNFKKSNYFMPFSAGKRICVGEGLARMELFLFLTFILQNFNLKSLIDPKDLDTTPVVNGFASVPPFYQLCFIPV
# Procedure, shortened: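 Human CYP2C19 (5nM) with Luciferin-H EGE at 10uM (its KM) in 50mM KPO4 was preincubated with compound for 10 min at 37C. NADPH regeneration started a 60 min 37C reaction. Luciferin was read by luminescence, normalized to 57uM ketoconazole.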
# [6] = molecular target: Cytochrome P450 2D6 (Homo sapiens) (UniProt P10635); test: qHTS Assay for Inhibitors and Substrates of Cytochrome P450 2D6 (AID 891);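 further: luciferin methyl ether substrate demethylated by CYP2D6 with NADPH regeneration; top concentration of the series differs between compounds; on the % scale 0 is the no-effect control and ±100 the full control effect; nearly all actives have a fitted effect of over 60% in size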
# UniProt P10635, sequence (P10635 whole entry, looked up): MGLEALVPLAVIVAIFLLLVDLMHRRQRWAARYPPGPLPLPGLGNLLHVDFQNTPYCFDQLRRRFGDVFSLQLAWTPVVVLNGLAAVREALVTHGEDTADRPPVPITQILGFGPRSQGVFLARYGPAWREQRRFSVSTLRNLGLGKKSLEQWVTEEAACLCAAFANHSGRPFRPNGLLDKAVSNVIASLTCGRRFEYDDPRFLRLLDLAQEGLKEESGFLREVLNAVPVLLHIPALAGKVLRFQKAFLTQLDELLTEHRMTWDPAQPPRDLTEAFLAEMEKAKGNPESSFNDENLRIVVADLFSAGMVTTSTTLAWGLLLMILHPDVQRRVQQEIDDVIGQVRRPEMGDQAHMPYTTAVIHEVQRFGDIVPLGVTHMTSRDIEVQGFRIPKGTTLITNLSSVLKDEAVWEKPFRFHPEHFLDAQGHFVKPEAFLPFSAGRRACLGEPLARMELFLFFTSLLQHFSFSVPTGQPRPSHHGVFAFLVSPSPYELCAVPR
# Procedure, shortened: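 Luminescent read-out of luciferin formed by 5 nM human CYP2D6 demethylating 30 uM Luciferin-ME EGE (Km level) over 60 min at room temperature after NADPH regeneration addition. Data normalized to full inhibition by 1.43 uM quinidine.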
# [7] = qHTS Assay for Identification of Small Molecule Agonists for Hypoxia Response Element Signaling Pathway (AID 914; active means well fitted activation curve with a large enough effect in the signal ratio, with a control signal flat, not every such curve was filed as active; inconclusive means small, poorly fitted or top-dose-only effect, or effect the other way, or a change in a side signal; the % refers to the signal ratio; further: top concentration of the series differs between compounds; % of control where 0% means no effect); conditions: ME-180 (cervical carcinoma) HRE-bla reporter, beta-lactamase ratio, CoCl2, 17 h; activation: hits give high values
# Procedure, shortened: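 HRE-bla ME-180 cells, overnight plating in Opti-MEM with 0.5% dialyzed FBS; cpd titration + EC50 CoCl2, 17 h, 37 degrees Celsius; CCF4 2.5 h RT; 460/530 nm ratio; AC50.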
# [8] = qHTS Assay for Identification of Small Molecule Antagonists for NFkB Signaling Pathway (AID 895; active means well fitted inhibition curve with a large enough effect in the signal ratio, with a control signal flat, not every such curve was filed as active; inconclusive means small, poorly fitted or top-dose-only effect, or effect the other way, or a change in a side signal; the % refers to the signal ratio; further: on the % scale 0 is the no-effect control and ±100 the full control effect); conditions: NFkB beta-lactamase reporter cells, FRET ratio 460/530, stimulated with 10 pM TNF alpha; activity change, negative = inhibition: at 38.3 µM (top of the series)
# Procedure, shortened: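 NFkB-bla ME-180 cervical carcinoma cells with beta-lactamase reporter under NFkB response element; compounds added, then TNF alpha at 10 pM final (EC50), 5 h at 37 C. LiveBLAzer substrate 2 h, room temperature; emission 460/530 nm at 405 nm excitation.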
# [9] = molecular target: Muscarinic acetylcholine receptor M1 (Rattus norvegicus) (UniProt P08482); test: qHTS Assay for Antagonists of Acetylcholine Muscarinic M1 Receptor: Kinetic Measurement of Intracellular Calcium Response (AID 943); further: potency means the concentration at half of the fitted maximal effect; nearly all actives have a fitted effect of over 75% in size
# UniProt P08482, sequence (P08482 whole entry, looked up): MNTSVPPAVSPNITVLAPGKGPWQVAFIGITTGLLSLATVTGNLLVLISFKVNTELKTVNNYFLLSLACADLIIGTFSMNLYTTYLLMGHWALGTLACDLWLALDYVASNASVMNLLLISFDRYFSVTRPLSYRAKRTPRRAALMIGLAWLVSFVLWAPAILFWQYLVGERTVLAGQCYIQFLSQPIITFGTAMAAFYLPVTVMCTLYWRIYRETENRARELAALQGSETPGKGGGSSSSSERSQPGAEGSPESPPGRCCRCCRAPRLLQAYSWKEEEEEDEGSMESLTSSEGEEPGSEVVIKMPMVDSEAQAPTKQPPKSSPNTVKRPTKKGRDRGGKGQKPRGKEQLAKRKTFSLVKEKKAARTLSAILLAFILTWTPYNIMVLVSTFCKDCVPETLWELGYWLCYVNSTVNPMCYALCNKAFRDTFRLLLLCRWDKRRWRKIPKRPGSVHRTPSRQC
# Procedure, shortened: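 Read-out: peak over basal Fluo-4 fluorescence, kinetic at 1 Hz for 4 min after EC80 carbachol (100 nM final). Rat M1-CHO cells, dye loaded 1 h at 37C, compound added 10 min before agonist.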
# [10] = qHTS Assay for Identification of Small Molecule Antagonists for Thrombopoietin (TPO) Signaling Pathway (AID 918); conditions: TPO-dependent cell signaling reporter, antagonist mode; activity change, negative = inhibition: at 38.5 µM (top of the series); further: nearly all actives have a fitted effect of over 60% in size
# Procedure, shortened: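 Luminescence read-out: GPIIb-promoter luciferase in Ba/F3 cells carrying human TPO receptor. Compounds added with 26 pM TPO (EC50), 24 hrs, 37 C, 5% CO2; cells deprived of IL-3 overnight beforehand. Inhibition of signal scored.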
# [11] = molecular target: Muscarinic acetylcholine receptor M1 (Rattus norvegicus) (UniProt P08482); test: qHTS Assay for Antagonists of Acetylcholine Muscarinic M1 Receptor: Measurement of IP-One Response (AID 944); further: potency means the concentration at half of the fitted maximal effect; nearly all actives have a fitted effect of over 75% in size
# Tags describe the fitted curve by direction and shape.
structure (smiles),measurement,setting,value
O=C(c1ccco1)N1CCC2(CC1)CCN(C(c1ccccc1)c1ccccc1)CC2,"activity change, negative = inhibition",[1],inconclusive: -50.9% [inhibitor]
same,Potency,[2],inactive
O=C(c1ccco1)N1CCC2(CC1)CCN(c1ccncc1)CC2,"activity change, negative = inhibition",[1],inconclusive: -72.6% [inhibitor]
same,Potency,[2],"inconclusive: 31.6 µM [inhibitor, full curve]"
COCCn1c(=O)c(-c2cc(F)cc(F)c2)nc2cnc(Oc3ccc(OC)cc3)nc21,"activity change, negative = inhibition",[1],inactive: 0.515%
same,Potency,[2],"inconclusive: 11.2 µM [inhibitor, single point]"
N#Cc1ccc(CN2CCCC3(CCN(C(=O)c4cc(C(F)(F)F)cc(C(F)(F)F)c4)CC3)C2)cc1,"activity change, negative = inhibition",[1],inconclusive: -70.7% [inhibitor]
same,Potency,[2],"inconclusive: 10 µM [inhibitor, partial curve, poor fit]"
O=C(O)[C@H]1CN[C@H](C(=O)O)C1,Potency,[3],inconclusive: 31.6 µM [decreasing]
same,Potency,[4],"inconclusive: 15.1 µM [inhibitor, partial curve]"
same,Potency,[5],inactive
same,Potency,[2],inactive
N#Cc1ccc(CN2CC[C@@]3(CCCN(S(=O)(=O)c4ccccc4)C3)C2)cc1,"activity change, negative = inhibition",[1],inconclusive: -59.3% [inhibitor]
same,Potency,[2],"inconclusive: 10 µM [inhibitor, single point]"
COc1ccc2[nH]cc(CCNc3ncncc3-c3ccc4c(c3)OCO4)c2c1,"activity change, negative = inhibition",[1],inconclusive: -34.6% [inhibitor]
same,Potency,[2],"inconclusive: 22.4 µM [inhibitor, single point]"
O=C(c1ccncc1)N1CCC2(CCCN(c3ccccn3)C2)CC1,"activity change, negative = inhibition",[1],inconclusive: -48.2% [inhibitor]
same,Potency,[2],inactive
CSc1nc(N)c2ncn([C@H]3O[C@H](COP(=O)(O)OP(=O)(O)OP(=O)(O)O)[C@@H](O)[C@@H]3O)c2n1,Potency,[3],inconclusive: 39.8 µM [decreasing]
same,Potency,[6],inactive
same,Potency,[2],inactive
COCCn1c(=O)c(C)nc2cnc(N(C)C)nc21,"activity change, negative = inhibition",[1],inactive: 13.3%
same,Potency,[2],inactive
O=C(c1cnccn1)N1CCC2(CCN(Cc3ccncc3)CC2)CC1,Potency,[3],inconclusive: 25.1 µM [decreasing]
same,activation,[7],inactive: 2.3%
same,Potency,[2],"inconclusive: 35.5 µM [inhibitor, partial curve, poor fit]"
CN1CC[C@@]2(CCCN(S(=O)(=O)c3ccccc3)C2)C1,"activity change, negative = inhibition",[1],inconclusive: -52.3% [inhibitor]
same,Potency,[2],inactive
CN(C)Cc1ccccc1-c1cncnc1NCc1ccccc1,"activity change, negative = inhibition",[1],inconclusive: -80.2% [inhibitor]
same,Potency,[2],"inconclusive: 10 µM [inhibitor, partial curve, poor fit]"
N[C@H](C(=O)O)[C@@H]1C[C@@H]1C(=O)O,Potency,[3],inactive
same,"activity change, negative = inhibition",[8],inconclusive: -32.3%
same,Potency,[9],"inconclusive: 0.0398 µM [inhibitor, full curve, poor fit]"
same,Potency,[2],"inconclusive: 39.8 µM [inhibitor, partial curve]"
COc1ccc(CNc2ncncc2-c2ccccc2CN(C)C)c(OC)c1,"activity change, negative = inhibition",[1],inconclusive: -30.4% [inhibitor]
same,Potency,[2],"inconclusive: 15.8 µM [inhibitor, single point]"
CCNc1ncc2nc(CCc3ccccc3)c(=O)n(C)c2n1,Potency,[3],active: 2.51 µM
same,Potency,[4],"inconclusive: 3.98 µM [activator, partial curve]"
same,Potency,[2],"inconclusive: 28.2 µM [inhibitor, single point]"
COCCn1c(=O)cnc2cnc(Oc3cccc(Cl)c3)nc21,"activity change, negative = inhibition",[1],inactive: 2.09%
same,Potency,[2],inactive
N#Cc1ccc(CN2CCCC3(CCN(S(=O)(=O)c4ccccc4)CC3)C2)cc1,"activity change, negative = inhibition",[1],inconclusive: -63.1% [inhibitor]
same,Potency,[2],inactive
COc1cccc(Nc2ncc3nc(-c4ccccc4)c(=O)n(C)c3n2)c1,Potency,[3],active: 3.16 µM
same,Potency,[4],"inconclusive: 3.16 µM [activator, single point]"
same,Potency,[2],inactive
O=C(c1ccncc1)N1CCC2(CCN(Cc3ccccc3)CC2)CC1,"activity change, negative = inhibition",[1],inconclusive: -4.46% [inhibitor]
same,Potency,[2],inactive
O=C(O)[C@H]1CN(CCCP(=O)(O)O)CCN1,Potency,[3],inconclusive: 39.8 µM [decreasing]
same,Potency,[4],"inconclusive: 19 µM [inhibitor, single point]"
same,"activity change, negative = inhibition",[8],inconclusive: -10.7%
same,"activity change, negative = inhibition",[10],inconclusive: -13.3% [phenotype inactive]
same,Potency,[11],"inconclusive: 7.08 µM [inhibitor, partial curve, poor fit]"
same,Potency,[2],"inconclusive: 10 µM [inhibitor, partial curve, poor fit]"
CN1CCN(c2ncc3ncc(=O)n(C[C@H]4CCCO4)c3n2)CC1,"activity change, negative = inhibition",[1],inconclusive: -47.4% [inhibitor]
same,Potency,[2],inactive
N[C@H](C(=O)O)[C@@H]1[C@@H](C(=O)O)C1(F)F,Potency,[3],inconclusive: 31.6 µM [decreasing]
same,Potency,[4],"inconclusive: 19 µM [inhibitor, single point]"
same,Potency,[2],"inconclusive: 2.24 µM [inhibitor, full curve, poor fit] and inconclusive: 12.6 µM [inhibitor, single point]"
